From PubChem BioAssay AID488969 (Vanderbilt High Throughput Screening Facility, 2010)
In all, about 110,000 compounds were measured (“z-score”: median about -0.1, highest 2% from about 2 on). This is one part of the list. Calls of active or inactive are those of the source.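 Rule for the calls: active = z-score in the third read window above 3 or below -3; inactive = the rest.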

What follows are molecules tested against Metabotropic glutamate receptor 8 (Rattus norvegicus) (UniProt P70579) (assay: rat mGluR8 modulators via GIRK flux, primary screen, cell-based, thallium flux, HTS (AID 488969)). Conditions: HEK293 rat mGluR8, GIRK (G protein-gated inwardly rectifying potassium channel) thallium flux, FluoZin2; at 10 µM; stronger effect = higher value; submaximal glutamate (EC20) added with thallium.
Sequence of UniProt P70579 (P70579 whole entry, looked up): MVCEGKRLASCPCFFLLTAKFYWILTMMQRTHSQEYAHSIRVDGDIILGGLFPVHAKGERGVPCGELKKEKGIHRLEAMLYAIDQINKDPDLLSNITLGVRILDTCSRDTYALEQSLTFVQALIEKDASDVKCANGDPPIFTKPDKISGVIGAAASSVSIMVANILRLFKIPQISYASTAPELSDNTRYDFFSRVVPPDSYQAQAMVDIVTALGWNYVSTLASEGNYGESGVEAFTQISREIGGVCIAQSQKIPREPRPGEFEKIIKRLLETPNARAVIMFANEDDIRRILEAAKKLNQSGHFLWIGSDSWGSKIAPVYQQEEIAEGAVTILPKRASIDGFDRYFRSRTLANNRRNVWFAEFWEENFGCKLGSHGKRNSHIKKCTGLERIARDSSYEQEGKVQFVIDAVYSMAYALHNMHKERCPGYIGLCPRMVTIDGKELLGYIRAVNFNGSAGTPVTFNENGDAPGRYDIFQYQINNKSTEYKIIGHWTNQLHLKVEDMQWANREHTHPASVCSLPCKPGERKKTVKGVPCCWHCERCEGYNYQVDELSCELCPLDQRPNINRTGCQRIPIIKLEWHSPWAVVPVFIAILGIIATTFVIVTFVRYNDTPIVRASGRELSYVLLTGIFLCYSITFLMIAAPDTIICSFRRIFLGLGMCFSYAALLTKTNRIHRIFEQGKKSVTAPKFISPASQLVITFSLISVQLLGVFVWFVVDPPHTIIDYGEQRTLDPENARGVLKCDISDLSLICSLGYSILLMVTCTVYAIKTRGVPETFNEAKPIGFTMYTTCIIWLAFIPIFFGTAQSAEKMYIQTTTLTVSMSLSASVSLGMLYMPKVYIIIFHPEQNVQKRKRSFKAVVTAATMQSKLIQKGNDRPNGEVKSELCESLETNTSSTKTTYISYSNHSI

In order of falling z-score:
1. CCOC(=O)CSC1=C(C#N)C(c2ccccc2OC)CC(=O)N1 (stereo unspecified)  1.8
2. O=C(O)C1CSC2c3ccccc3C(=O)N12 (stereo unspecified)  1.36
3. Cc1ccc(NCc2nnc(SCC#N)o2)c(C)c1  1.28
4. O=C(CN1CCN(Cc2ccccc2)CC1)N/N=C/c1c[nH]c2ccccc12  1.1
5. COc1cc2c(cc1OC)C1C/C(=N\O)C(CC(C)C)CN1CC2 (stereo unspecified)  0.804
6. COc1ccc(-c2nc3ncccn3c2Nc2ccc3c(c2)OCCO3)cc1  0.678
7. Nc1ccc2ncccc2c1  0.605
8. O=C(/C=C/c1ccccc1)N/C(=C/c1ccccc1)C(=O)N1CCOCC1  0.604
9. COc1ccc(S(=O)(=O)Nc2ccccc2)cc1OC  0.597
10. COc1cc2cc(C#N)c(SCC(=O)N3CCOCC3)nc2cc1OC  0.593
11. Cc1ccc(S(=O)(=O)Nc2ccc(N=Nc3ccc(O)cc3)cc2)cc1  0.492
12. O=C(NCc1cccc(Cl)c1)c1cnccn1  0.429
13. O=c1[nH][nH]cc1C=Nc1ccccc1O  0.415
14. CCOc1ccc(-c2[nH]ncc2Oc2cccc(OC)c2)c(O)c1  0.37
15. O=C(O)CCc1ccc(-c2ccc(F)cc2)n1CCC(=O)O  0.291
16. Cc1cc(C)nc(NS(=O)(=O)c2ccc(-n3cccc3)cc2)n1  0.281
17. O=S(=O)(Cc1ccc(Cl)cc1)N1CCN(Cc2ccccc2)CC1  0.156
18. Cc1cc2ncn(C(=O)c3c(-c4c(Cl)cccc4Cl)noc3C)c2cc1C  0.106
19. O=C(CSc1nc2c(sc3ccccc32)c(=O)n1CCO)NCC1CCCO1 (stereo unspecified)  0.0816
20. COC(=O)COc1ccc(S(=O)(=O)Nc2ccc(C(N)=O)cc2)cc1Cl  0.0621
21. COc1cc(C(=O)NCC2CCCO2)cc(OC)c1OC (stereo unspecified)  0.0135
22. Cc1nn(C)c(C)c1-c1c(C#N)c(N)nc2c1CCCCCC2  0.0105
23. CC(C)(C)C(=O)Nc1nnc(SCC(=O)NCc2ccco2)s1  0.00513
24. c1ccc(CCCc2nc(-c3ccccn3)no2)cc1  -0.005
25. CCOC(=O)CC(=O)CSc1nc2ccccc2c(=O)n1-c1ccc(C(=O)N2CCOCC2)cc1  -0.0436
26. COC(=O)C(NC(C)=O)(Nc1sc2c(c1C(N)=O)CCCC2)C(F)(F)F (stereo unspecified)  -0.0578
27. CCOc1ccccc1OCCOCCOc1c(Cl)cccc1Cl  -0.061
28. CCOC(=O)N1CCC(NC(=O)Cn2cc3c(n2)CCC(C)C3)CC1 (stereo unspecified)  -0.065
29. O=C(Nc1cccc(S(=O)(=O)N2CCCCC2)c1)Nc1ccc(Cl)cc1Cl  -0.0698
30. Cn1c(SCc2nc(-c3ccc(Cl)cc3)no2)nnc1-c1cccs1  -0.0713
31. O=S(=O)(c1cc(Cl)ccc1Br)N1CCCCC1  -0.084
32. C(=C\c1nc(N2CCCCCC2)c2ccccc2n1)/c1ccccc1  -0.104
33. CCOC(=O)C(C(=O)Nc1nc2ccccc2s1)C1CCCCC1 (stereo unspecified)  -0.116
34. COc1ccc(NC(=O)CCC(=O)c2cccs2)cc1S(=O)(=O)Nc1ccc(Cl)cc1  -0.118
35. CCOC(=O)c1ccc(NC(=O)C2CCN(S(=O)(=O)CC)CC2)cc1  -0.119
36. COc1cccc(NC(=O)CN(Cc2ccccc2)S(C)(=O)=O)c1  -0.122
37. Cc1ccc(C(=O)NNc2cc(N3CCCC3)nc(N3CCCC3)n2)cc1  -0.127
38. COc1cccc(C2=NOC(C(=O)NCCCn3ccnc3)C2)c1 (stereo unspecified)  -0.152
39. C/C(N)=C(/C#N)C(=O)COc1ncnc2ccc(Br)cc12  -0.153
40. CCCC(=Nc1ccc(N)cc1)C1=C(O)C(C(=O)OC)C(C)(C)CC1=O (stereo unspecified)  -0.174
41. O=C(c1ccc(-n2c(SCc3cccc(F)c3)nc3ccccc3c2=O)cc1)N1CCOCC1  -0.182
42. Cc1c(NC(=O)Nc2ccc3c(c2)OCO3)c(=O)n(-c2ccccc2)n1C  -0.208
43. COc1ccc(NC(=O)N2CCC(c3nc(-c4cccs4)no3)CC2)cc1  -0.229
44. CCOc1ccccc1OCCOc1ccccc1CC  -0.233
45. O=C(COC(=O)Cn1cnc2ccccc21)Nc1ccc2c(c1)C(=O)c1ccccc1C2=O  -0.238
46. CC1CN(C(=O)c2cc3cc(Cl)cc(Cl)c3oc2=O)CC(C)O1 (stereo unspecified)  -0.241
47. Cc1ccc(NC(=S)N2CCN(c3ncccn3)CC2)c(C)c1  -0.247
48. O=S(=O)(Cc1ccc(Cl)cc1)Nc1ccc2c(c1)OCO2  -0.254
49. C#CCOC(=O)/C(=C/C=C/c1ccccc1)NC(=O)c1ccccc1  -0.264
50. O=C(NCCc1ccccc1)C(=O)N/N=C/c1ccc2c(c1)OCO2  -0.266
51. COC(=O)c1ccccc1S(=O)(=O)N(CCCO)Cc1cc2c(C)ccc(C)c2[nH]c1=O  -0.268
52. Cc1cccc(N=Cc2[nH]c3ccc(Br)c(Cl)c3c2O)c1  -0.294
53. C#CCn1c(S(=O)(=O)Cc2ccc(F)cc2)nc(-c2ccccc2)c1-c1ccccc1  -0.295
54. CCCC(=O)Nc1nc2ccc(S(N)(=O)=O)cc2s1  -0.295
55. Cc1noc(/C=C/N(C)C)c1S(=O)(=O)N1CCCC(C(=O)Nc2ccc3c(c2)OCO3)C1 (stereo unspecified)  -0.298
56. CCOC(=O)C(C)S(=O)(=O)c1ccc(C(F)(F)F)cn1 (stereo unspecified)  -0.308
57. Cc1cc(NCCNC2=CC(=O)CCC2)nc2ccccc12  -0.308
58. O=C(CC(=O)Nc1cccc(Cl)c1)N/N=C\c1ccccc1  -0.327
59. COc1ccc(/C=C2\CCCC3C2=NN(C(=O)c2ccco2)C3c2ccc(OC)c(OC)c2)cc1OC (stereo unspecified)  -0.333
60. COc1ccc(/C=N\NC(=O)c2cc(O)c(O)c(O)c2)cc1CN1CCN(c2ccc(F)cc2)CC1  -0.347
61. COCCN(CCOC)S(=O)(=O)c1ccc(C(=O)Nc2nnc(C3CC3)o2)cc1  -0.378
62. CC(=NCC1CCCO1)c1c(O)[nH]c(=O)[nH]c1=O (stereo unspecified)  -0.392
63. Cc1ccc(CN2CCN(/N=C/c3cc(Br)ccc3O)CC2)cc1  -0.494
64. COc1ccc(C2NCCO2)cc1OC (stereo unspecified)  -0.584
65. Cc1nn(-c2ccccc2)c2[nH]c(=O)c(CNCc3ccc4c(c3)OCO4)cc12  -0.638
66. C=CCN(C(=O)Cn1ncc2c1-c1cc(C)ccc1OC2)c1ccccc1  -0.764
67. CCC(C)Nc1ncnc2c1cnn2Cc1ccc(Cl)cc1 (stereo unspecified)  -0.932
68. O=C(c1ccc(S(=O)(=O)c2ccccc2Cl)c([N+](=O)[O-])c1)N1CCN(Cc2ccccc2)CC1  -0.971
69. NC(=O)c1ccccc1N=Cc1ccc2ccccc2c1  -1.08
70. CCSc1nnc(NC(=O)CSc2nc3c(c(=O)n2-c2ccccc2OC)SCC3)s1  -2.55

In the case of `CC(c1ccc(Cl)cc1)n1c(-c2ccc3ccccc3n2)n[nH]c1=S` (stereo unspecified), the z-score is reported as active: 7.23.
